Reference: the supplement of paper PMC8948288
The sequences are guide strands of siRNAs; only the seed at positions 2 to 7 varies.

Assays:
GL261 = assay: cell viability relative to siNT1 (ATP content); H4 human neuroglioma and GL261 mouse glioma; higher = less toxic; details: siRNA concentration 25 nM; 96 h; mouse
H4 = assay: as above; details: siRNA concentration 10 nM; 96 h; human
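Note: cells reverse transfected with siRNA duplexes via lipid reagent, ATP read by luminescence, triplicate wells, values scaled to mean viability with non-targeting control siNT1.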

Row | Sequence | cell viability (GL261) [%] | cell viability (H4) [%]
1 | UCUUAAGACAUGUAAACCA | 56.7 | 95.5
2 | UCUUAAUACAUGUAAACCA | 57.6 | 93.5
3 | UCUUACAACAUGUAAACCA | 50.2 | 90.2
4 | UCUUACCACAUGUAAACCA | 44.9 | 51.9
5 | UCUUACGACAUGUAAACCA | 52.6 | 89.6
6 | UCUUACUACAUGUAAACCA | 75.6 | 97.4
7 | UCUUAGAACAUGUAAACCA | 49.9 | 101
8 | UCUUAGCACAUGUAAACCA | 36.8 | 74.3
9 | UCUUAGGACAUGUAAACCA | 47.7 | 79.8
10 | UCUUAGUACAUGUAAACCA | 37.6 | 87.5
11 | UCUUAUAACAUGUAAACCA | 41.5 | 88.6
12 | UCUUAUCACAUGUAAACCA | 59.3 | 88
13 | UCUUAUGACAUGUAAACCA | 38.9 | 114
14 | UCUUAUUACAUGUAAACCA | 60.2 | 103
15 | UCUUCAAACAUGUAAACCA | 33.4 | 113
16 | UCUUCACACAUGUAAACCA | 42.7 | 80.9
17 | UCUUCAGACAUGUAAACCA | 48.6 | 84.4
18 | UCUUCAUACAUGUAAACCA | 35.5 | 86.7
19 | UCUUCCAACAUGUAAACCA | 48 | 77.5
20 | UCUUCCCACAUGUAAACCA | 44.3 | 51.9
21 | UCUUCCGACAUGUAAACCA | 52.1 | 89.5
22 | UCUUCCUACAUGUAAACCA | 21.8 | 74.5
23 | UCUUCGAACAUGUAAACCA | 44.4 | 96.1

Row | Sequence | cell viability (GL261) [%] | cell viability (H4) [%]
24 | UCUUCGCACAUGUAAACCA | 18.2 | 64.5
25 | UCUUCGGACAUGUAAACCA | 41.2 | 80.3
26 | UCUUCGUACAUGUAAACCA | 45.6 | 99.6
27 | UCUUCUAACAUGUAAACCA | 82.3 | 94.8
28 | UCUUCUCACAUGUAAACCA | 28.6 | 77.2
29 | UCUUCUGACAUGUAAACCA | 54.3 | 101
30 | UCUUCUUACAUGUAAACCA | 56.5 | 94.6
31 | UCUUGAAACAUGUAAACCA | 62.5 | 105
32 | UCUUGACACAUGUAAACCA | 14.8 | 97
33 | UCUUGAGACAUGUAAACCA | 49.8 | 73
34 | UCUUGAUACAUGUAAACCA | 56.8 | 70.3
35 | UCUUGCAACAUGUAAACCA | 68.6 | 95.8
36 | UCUUGCCACAUGUAAACCA | 7.29 | 6.28
37 | UCUUGCGACAUGUAAACCA | 46.6 | 98
38 | UCUUGCUACAUGUAAACCA | 17.9 | 74.6
39 | UCUUGGAACAUGUAAACCA | 44.7 | 41.8
40 | UCUUGGCACAUGUAAACCA | 7.63 | 25
41 | UCUUGGGACAUGUAAACCA | 49.3 | 50.5
42 | UCUUGGUACAUGUAAACCA | 32.7 | 75
43 | UCUUGUAACAUGUAAACCA | 64.9 | 97.9
44 | UCUUGUCACAUGUAAACCA | 41.8 | 98.6
45 | UCUUGUGACAUGUAAACCA | 39.4 | 92.2
46 | UCUUGUUACAUGUAAACCA | 29.3 | 89.4

Row | Sequence | cell viability (GL261) [%] | cell viability (H4) [%]
47 | UCUUUAAACAUGUAAACCA | 52.3 | 113
48 | UCUUUACACAUGUAAACCA | 69.8 | 77.9
49 | UCUUUAGACAUGUAAACCA | 99.6 | 97.5
50 | UCUUUAUACAUGUAAACCA | 74.5 | 111
51 | UCUUUCAACAUGUAAACCA | 46.7 | 82.4
52 | UCUUUCCACAUGUAAACCA | 28.5 | 38.1
53 | UCUUUCGACAUGUAAACCA | 80.5 | 99
54 | UCUUUCUACAUGUAAACCA | 43.8 | 61.9
55 | UCUUUGAACAUGUAAACCA | 46.8 | 80.6
56 | UCUUUGCACAUGUAAACCA | 13.8 | 55.9
57 | UCUUUGGACAUGUAAACCA | 37.2 | 78.9
58 | UCUUUGUACAUGUAAACCA | 24.1 | 84.1
59 | UCUUUUAACAUGUAAACCA | 83.9 | 88.9
60 | UCUUUUCACAUGUAAACCA | 54.8 | 87.8
61 | UCUUUUGACAUGUAAACCA | 102 | 112
62 | UCUUUUUACAUGUAAACCA | 56.5 | 102
63 | UGAAAAAACAUGUAAACCA | 60.2 | 84.1
64 | UGAAAACACAUGUAAACCA | 44.5 | 68.2
65 | UGAAAAGACAUGUAAACCA | 59.7 | 89.5
66 | UGAAAAUACAUGUAAACCA | 71.4 | 103
67 | UGAAACAACAUGUAAACCA | 47.8 | 87.8
68 | UGAAACCACAUGUAAACCA | 17.8 | 24.9
69 | UGAAACGACAUGUAAACCA | 45.4 | 102

Row | Sequence | cell viability (GL261) [%] | cell viability (H4) [%]
70 | UGAAACUACAUGUAAACCA | 27.6 | 52.4
71 | UGAAAGAACAUGUAAACCA | 65.8 | 81.2
72 | UGAAAGCACAUGUAAACCA | 33.2 | 38.9
73 | UGAAAGGACAUGUAAACCA | 35.7 | 68.8
74 | UGAAAGUACAUGUAAACCA | 34.5 | 67.8
75 | UGAAAUAACAUGUAAACCA | 66 | 96
76 | UGAAAUCACAUGUAAACCA | 28.8 | 47.3
77 | UGAAAUGACAUGUAAACCA | 61.4 | 72.1
78 | UGAAAUUACAUGUAAACCA | 49.9 | 103
79 | UGAACAAACAUGUAAACCA | 48.3 | 82
80 | UGAACACACAUGUAAACCA | 41.1 | 52
81 | UGAACAGACAUGUAAACCA | 73 | 49.4
82 | UGAACAUACAUGUAAACCA | 39.5 | 87.8
83 | UGAACCAACAUGUAAACCA | 65.3 | 71.9
84 | UGAACCCACAUGUAAACCA | 34.6 | 48.7
85 | UGAACCGACAUGUAAACCA | 65.1 | 88.5
86 | UGAACCUACAUGUAAACCA | 16.9 | 85.6
87 | UGAACGAACAUGUAAACCA | 51.4 | 87.2
88 | UGAACGCACAUGUAAACCA | 44.1 | 81.7
89 | UGAACGGACAUGUAAACCA | 19.6 | 77
90 | UGAACGUACAUGUAAACCA | 37.1 | 75.3
